Results taken from PubChem BioAssay AID588855 (National Center for Advancing Translational Sciences (NCATS), 2011).
“And” between values parts separate entries of the source, which are not always exact repeats. Equal entries are not always repeated. In all, about 410,000 compounds went through this assay and about 5,000 (1.2%) were called active. Inconclusive means that the source gave no clear call. Such entries were picked first, then a sample of the others. Calls follow the shape of the dose curve; as a rule, active = well fitted inhibition curve with a large enough effect; inconclusive = small, poorly fitted or top-dose-only effect; inactive = no such curve, though single readings can be large or run the other way. Where the call is inconclusive, the potency comes from a doubtful curve fit.

assay: qHTS for Inhibitors of TGF-b; details: HepG2 CAGA-GFP TGF-b/SMAD3 reporter, GFP fluorescence, 18 h, TGF-beta stimulated, 500 pg/mL final; series mostly up to 46.1 µM; also: nearly all actives have a fitted effect of over 65% in size
Method in brief: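 Inhibition was scored as loss of TGF-beta-induced (500 pg/mL final, 18 hours, 37 degrees C) GFP in HEPG2 cells carrying a CAGA-GFP reporter, in DMEM with 1% FBS. Well GFP was summed per cell; Activity was normalised to unstimulated and stimulated DMSO wells, then concentration-response fitting.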
Potency is read from the fitted curve at half-maximal effect; tags tell the direction and shape of the fitted curve.

Compound	Potency
C(=N\Nc1nccc(-c2cccnc2)n1)/c1ccccc1	inconclusive: 10 µM [inhibitor, partial curve, poor fit]
Cc1nc(NC(=O)c2ccccc2)sc1C1(C)CC(c2c(Cl)cccc2Cl)=NO1 (stereo unspecified)	inconclusive: 14.1 µM [inhibitor, single point]
N#Cc1cnn(Cc2ccccc2)c1/N=C/N1CCOCC1	inactive
CCOC(=O)N1CCN(Cc2cc(Cl)c3cccnc3c2O)CC1	inconclusive: 7.94 µM [inhibitor, partial curve, poor fit]
Cc1ccc(NC(=O)CSC(N)=O)cc1Cl	inactive
CN(C)C(=O)c1ccc(NC(=O)c2cc(-c3ccco3)nc3ccccc23)cc1	inactive
C=C1[C@@H](O)[C@H](Cc2ccccc2)N(Cc2ccccc2Br)S1(=O)=O	inconclusive: 6.31 µM [inhibitor, full curve, poor fit]
CC(C)CN(CC(C)C)CC(O)COc1ccccc1Br (stereo unspecified)	active: 11.2 µM
O=C(Nc1nnc(-c2ccc(F)cc2)o1)c1ccc(S(=O)(=O)N2CCOCC2)cc1	inactive
c1ccc2ncc(-n3cnnn3)cc2c1	inconclusive: 35.5 µM [inhibitor, single point]
COc1ccc2c(c1)N(C[C@H](C)CN(C)C)c1ccccc1S2	inactive
COc1ccc(C(CC(=O)N2CCCCC2)c2c(OC)cc(OC)c3c(-c4ccccc4)cc(=O)oc23)cc1 (stereo unspecified)	inconclusive: 35.5 µM [inhibitor, single point]
O=S(=O)(c1cccc2ccccc12)N1CCC2CC1c1cc(Cl)ccc12 (stereo unspecified)	inconclusive: 8.91 µM [inhibitor, partial curve, poor fit]
COc1ccccc1NS(=O)(=O)c1cccc(NC(=O)NCCCl)c1	inactive
Cc1ccc(S(=O)(=O)NCC(=O)NCC(=O)N2CCN(c3ncccn3)CC2)cc1C	inconclusive: 15.8 µM [inhibitor, partial curve, poor fit]
CCc1nc2c(OCc3ccccc3C)cccn2c1N(C)C(=O)c1ccc(C)cc1	inconclusive: 35.5 µM [inhibitor, single point]
O=C(Nc1cccc(-c2nc3ccccc3[nH]2)c1)c1cccc(NC(=O)c2ccco2)c1	inconclusive: 35.5 µM [inhibitor, single point]
CCOc1ccc(N(Cc2ccc(C(=O)O)cc2)S(=O)(=O)c2ccc(C)cc2)cc1	inconclusive: 35.5 µM [inhibitor, single point]
C/C=C1\COC(C(=O)NCCN2CCOCC2)(C(F)(F)F)C=C1C=C1CCCCC1 (stereo unspecified)	inconclusive: 35.5 µM [inhibitor, single point]
Cn1c2ccc(F)cc2c2ncn(Cc3ccco3)c(=O)c21	inactive
COC(=O)c1sccc1S(=O)(=O)Nc1ccc(C(O)(C(F)(F)F)C(F)(F)F)cc1	inconclusive: 15.8 µM [inhibitor, single point]
Cc1ccc(Cn2c(Cc3ccccc3)nc3ccccc32)cc1	inconclusive: 35.5 µM [inhibitor, single point] and inconclusive: 31.6 µM [inhibitor, single point]

Compound	Potency
Brc1cnc(N2CCCC2)nc1N1CCOCC1	inconclusive: 6.31 µM [inhibitor, single point]
O=C(c1ccc(Cl)c(Cl)c1)N(Cc1ccco1)c1ccc(O)cc1	inconclusive: 35.5 µM [inhibitor, single point]
O=C1N/C(=N\N=C\c2ccccn2)SC1Cc1cccc(SC(F)F)c1 (stereo unspecified)	inconclusive: 5.01 µM [inhibitor, partial curve, poor fit]
COc1cccc(C2=CC(=O)C(C(C)(C)C)N2C(C)(C)C)c1 (stereo unspecified)	inconclusive: 35.5 µM [inhibitor, single point]
Cc1ccc(-c2nc(CS(=O)(=O)CC(=O)NCCN3CCOCC3)c(C)o2)cc1	inconclusive: 8.91 µM [inhibitor, partial curve, poor fit]
CCOC(=O)COc1ccccc1/C=N\NC(=O)c1cc2c(ccc3ccccc32)o1	inconclusive: 17.8 µM [inhibitor, single point]
COc1ccc(CC2(CO)CCN(Cc3ccc(OC(F)(F)F)cc3)CC2)cc1	active: 14.1 µM
CC(Oc1ccccc1F)C(=O)N1CCC(c2nc3ccccc3o2)CC1 (stereo unspecified)	inconclusive: 6.31 µM [inhibitor, partial curve, poor fit]
CCc1cc2c(-c3ccccc3)cc(=O)oc2c2c1OCN(Cc1ccc(C)cc1)C2	inconclusive: 35.5 µM [inhibitor, single point]
CCN(c1ccccc1)S(=O)(=O)c1ccc(Cl)c(NC(=O)CN2CCCCCC2)c1	inconclusive: 7.08 µM [inhibitor, partial curve, poor fit]
CCCN1CCN(CCCNC(=O)c2ccc3c(Cl)c4c(nc3c2)CCCC4)CC1	inconclusive: 11.2 µM [inhibitor, partial curve, poor fit]
COc1ccccc1/C=C/C=N/n1c(C2CCCCC2)n[nH]c1=S	inactive
O=C(Nc1ccc2cn[nH]c2c1)c1c(Cl)cccc1Cl	inactive
Cc1csc(C(=O)O)c1NC(=O)c1c(Cl)cccc1Cl	inactive
CC(=O)c1cccc(NC(=O)c2ccc(N(Cc3ccccc3C)S(C)(=O)=O)cc2)c1	inconclusive: 5.62 µM [inhibitor, single point]
Cc1ccc(NC(=O)C2CCN(S(=O)(=O)c3ccc4c(c3)OCCO4)CC2)nc1	inactive
CC(NS(=O)(=O)c1ccc(Br)cc1F)[C@H](O)c1ccccc1 (stereo partly specified)	inactive
Cc1noc(C)c1CSCC(=O)N(CC(C)C)c1c(N)n(Cc2ccccc2)c(=O)[nH]c1=O	inconclusive: 2 µM [inhibitor, partial curve, poor fit]
CC1(c2cc([N+](=O)[O-])cc([N+](=O)[O-])c2)CC(C)(C)N(C(=O)c2ccccc2)c2ccccc21 (stereo unspecified)	inconclusive: 11.2 µM [inhibitor, partial curve, poor fit]
CN1CCN(C(=S)Nc2ccc(Cl)cc2Cl)CC1	inactive
CC1=CC(C)(C)N2C(=O)C3(SCC(=O)N3c3ccc(F)cc3)c3cc(C)cc1c32 (stereo unspecified)	inconclusive: 35.5 µM [inhibitor, single point]
COC(=O)CC1COc2ccccc2N1C(=O)c1ccc(Cl)cc1 (stereo unspecified)	inconclusive: 6.31 µM [inhibitor, single point]

Compound	Potency
CCCCc1ccc(NC(=O)N2CCN(c3cc(C)nc4ccccc34)CC2)c(C)c1	inconclusive: 12.6 µM [inhibitor, partial curve, poor fit]
CCC1CCCCN1C(=O)CSc1nc(-c2ccc(OC)cc2)cc(C(F)(F)F)n1 (stereo unspecified)	inconclusive: 8.91 µM [inhibitor, partial curve, poor fit]
CC(=O)c1c(C)[nH]c(C(=O)Nc2ccccc2N2CCOCC2)c1C	inactive
Cc1cccc(NC(=O)CSc2nc3ccccc3nc2N2CC(C)OC(C)C2)c1 (stereo unspecified)	inconclusive: 35.5 µM [inhibitor, single point]
FC(F)(F)c1cccc(Cc2noc(CN3CCC(c4ccncc4)CC3)n2)c1	inconclusive: 12.6 µM [inhibitor, single point]
CCOC(=O)C(CCSC)Nc1nc(Cl)nc(Nc2ccc(Cl)cc2)n1 (stereo unspecified)	inconclusive: 3.16 µM [inhibitor, partial curve, poor fit]
Cc1ccc(C2CC2c2n[nH]c(=S)n2-c2ccc(Cl)cc2)cc1 (stereo unspecified)	inconclusive: 25.1 µM [inhibitor, single point]
COc1cc(-c2nc(-c3ccccc3)c(-c3ccc(F)cc3)[nH]2)cc2c1OCO2	inconclusive: 5.62 µM [inhibitor, partial curve, poor fit]
CCn1cnc2cc(NCc3ccc(N(C)C)cc3)ccc21	active: 10 µM
Cc1ccc(COn2c(-c3ccc(Cl)cc3)nc3ccc([N+](=O)[O-])cc32)cc1	inactive
Clc1cccc(/C(Cc2nc3ccccc3[nH]2)=N\Nc2ccccc2)c1	inconclusive: 35.5 µM [inhibitor, single point]
CCNc1nc(NC(C)C)nc(SCCOc2ccc(C)cc2)n1	inconclusive: 35.5 µM [inhibitor, single point]
CCc1cc2c(=O)c(-c3cscn3)coc2cc1O	inconclusive: 6.31 µM [inhibitor, partial curve, poor fit]
O=C(NC(=S)Nc1ccc(N2CCOCC2)c(Cl)c1)c1cncc(Br)c1	inconclusive: 2.82 µM [inhibitor, full curve, poor fit]
COc1ccc(OC)c(S(=O)(=O)N2CCCC(C(=O)NCCN3CCOCC3)C2)c1 (stereo unspecified)	inactive
COc1cccc(CNC(=O)C2CCCN(c3nnc(-n4c(C)ccc4C)s3)C2)c1 (stereo unspecified)	inconclusive: 14.1 µM [inhibitor, partial curve, poor fit]
O=C(O)c1cccc(CSc2nc(-c3ccc(Cl)cc3)cc(C(F)(F)F)n2)c1	inconclusive: 17.8 µM [inhibitor, single point]
CCN(CC)CCn1c2c(c(SCC(=O)Nc3cc(C)on3)nc1=O)CCCC2	inactive
O=C(Nc1ccc(N2CCN(C(=O)c3ccco3)CC2)cc1)c1ccccc1F	inconclusive: 5.62 µM [inhibitor, single point]
Cc1cc(C)c(C)c(S(=O)(=O)NCc2ccc(C(=O)NCC3CCCO3)cc2)c1C (stereo unspecified)	inactive
CCCCOc1ccc(S(=O)(=O)Nc2cccnc2)cc1	inactive
COC(=O)c1ccccc1NC(=O)CSc1c2c(nc3ccc(Cl)cc13)CCCC2	inactive
